Here are results for 20 compounds from ChEMBL document CHEMBL5606460, “ASAP - DENV-2 NS2B-NS3 protease fluorescence single point” (2024).

The inhibition is the drop in the measured response relative to a control, in per cent.

This assay has as its target Genome polyprotein (dengue virus type 2) (UniProt P29990).
The mark [1] stands for this setting: Thailand/16681/1984, Concentration 25.0 uM, Number of replicates 1.0.

SMILES strings stand for the structures. Screen size: about 2,000 compounds; about 110 (5.5%) showed an effect of 50% or more. The list shows a part of the results.

For the compound `Cc1cnccc1NC(=O)c1cnn2cc[nH]c(=O)c12`, the inhibition by setting is: (Thailand/16681/1984, Concentration 49.5 uM, Number of replicates 2.0, Standard deviation 4.773555265504345 %) -2.07%; (Thailand/16681/1984, Concentration 99.01 uM, Number of replicates 2.0, Standard deviation 2.7954488173666587 %) -0.411%; (Thailand/16681/1984, Concentration 198.0 uM, Number of replicates 2.0, Standard deviation 2.947044878020462 %) 1.2%.

In the case of `O=Cc1ccc(N2CCC(C(=O)N[C@H]3CC4(CCCC4)Oc4ccccc43)CC2)cc1`, the inhibition under setting [1] amounted to 3.14%.

Turning to `Cc1cc(C)n(CCCNC(=O)C2CCN(c3ccc(C=O)cc3)CC2)n1`, the inhibition under setting [1] came to 12.7%.

For the compound `CNC(=O)c1cc(Cl)ccc1NS(=O)(=O)c1cccc(Oc2ccccc2)c1`, the inhibition amounted to 8.45% (Thailand/16681/1984, Concentration 49.5 uM, Number of replicates 2.0, Standard deviation 1.273206391645472 %); 23.8% (Thailand/16681/1984, Concentration 99.01 uM, Number of replicates 2.0, Standard deviation 0.33776821571418564 %); 89.9% (Thailand/16681/1984, Concentration 198.0 uM, Number of replicates 2.0, Standard deviation 0.06600533651594093 %).

For the compound `CCc1nc(CNC(=O)[C@]2(c3ccc(F)cc3)CCCNC2)n[nH]1`, the inhibition runs as follows: (Thailand/16681/1984, Concentration 49.5 uM, Number of replicates 2.0, Standard deviation 0.49799700461423274 %) -1.23%; (Thailand/16681/1984, Concentration 99.01 uM, Number of replicates 2.0, Standard deviation 0.6482125452450617 %) -1.25%; (Thailand/16681/1984, Concentration 198.0 uM, Number of replicates 2.0, Standard deviation 1.0139545093997464 %) -1.41%.

`O=C(O)c1cccc(NC(=O)c2cccs2)c1`: the inhibition (Thailand/16681/1984, Concentration 49.5 uM, Number of replicates 2.0, Standard deviation 0.598805970566795 %) was -0.317%; the inhibition (Thailand/16681/1984, Concentration 99.01 uM, Number of replicates 2.0, Standard deviation 0.5844804411504043 %) amounted to 1.75%; the inhibition (Thailand/16681/1984, Concentration 198.0 uM, Number of replicates 2.0, Standard deviation 0.39251882639117147 %) came to 2.34%.

With `CC(C)(CNC(=O)C1CCN(c2ccc(C=O)cc2)CC1)c1cccc(Cl)c1`, under setting [1], the inhibition turned out to be 10.4%.

Turning to `O=C(O)c1cccc(NC(=O)c2ccncc2)c1`, the inhibition was -0.761% (Thailand/16681/1984, Concentration 49.5 uM, Number of replicates 2.0, Standard deviation 1.179943882139058 %); -0.242% (Thailand/16681/1984, Concentration 99.01 uM, Number of replicates 2.0, Standard deviation 0.8155985855186833 %); 1.11% (Thailand/16681/1984, Concentration 198.0 uM, Number of replicates 2.0, Standard deviation 1.2181452324519455 %).

Take `Cc1cc(C)nc(CCNC(=O)C2CCN(c3ccc(C=O)cc3)CC2)n1`: the inhibition under setting [1] worked out at 10.6%.

For `CC(C)(CO)NC(=O)c1cc(Cl)cc(NC(=O)c2ccc(CO)s2)c1`, the inhibition turned out to be 0.416% (Thailand/16681/1984, Concentration 49.5 uM, Number of replicates 2.0, Standard deviation 0.042660723961363105 %); 2.52% (Thailand/16681/1984, Concentration 99.01 uM, Number of replicates 2.0, Standard deviation 0.04734288058271109 %); 3.51% (Thailand/16681/1984, Concentration 198.0 uM, Number of replicates 2.0, Standard deviation 0.687253929663976 %).

On to `N#Cc1cccc(NC(=O)[C@@H](NC(=O)c2ccc(Oc3ccc(C(F)(F)F)cc3)cc2)c2ccc(OCc3ccccc3)cc2)c1`, for which the inhibition by setting is: (Thailand/16681/1984, Concentration 49.5 uM, Number of replicates 2.0, Standard deviation 0.9263674997821656 %) -5.09%; (Thailand/16681/1984, Concentration 99.01 uM, Number of replicates 2.0, Standard deviation 0.4269393146330484 %) -4.04%; (Thailand/16681/1984, Concentration 198.0 uM, Number of replicates 2.0, Standard deviation 0.9636779131327375 %) -5.31%.

Turning to `O=Cc1ccc(N2CCC(C(=O)NCc3ccc(Br)cn3)CC2)cc1`, under setting [1], the inhibition was determined as 13.7%.

For `CC(C)Nc1nc2cc(NCc3cccc(C(N)=O)c3)ccc2[nH]1`, the inhibition (Thailand/16681/1984, Concentration 49.5 uM, Number of replicates 2.0, Standard deviation 0.023235641877752903 %) was -0.517%; the inhibition (Thailand/16681/1984, Concentration 99.01 uM, Number of replicates 2.0, Standard deviation 0.06423980503181957 %) was 1.24%; the inhibition (Thailand/16681/1984, Concentration 198.0 uM, Number of replicates 2.0, Standard deviation 0.8255495407458023 %) was determined as 3.31%.

In the case of `Cc1cc(CO)c2cccc(Cc3cccc(NC(=O)[C@@H](N)CCN)c3)c2n1`, the inhibition runs as follows: (Thailand/16681/1984, Concentration 49.95 uM, Number of replicates 2.0, Standard deviation 2.182317285773337 %) -7.99%; (Thailand/16681/1984, Concentration 99.9 uM, Number of replicates 2.0, Standard deviation 2.5859629223182328 %) 2.16%.

Turning to `c1ccc(-n2cc(CN3CCC(c4c[nH]c5cccnc45)CC3)cn2)nc1`, the inhibition runs as follows: (Thailand/16681/1984, Concentration 49.5 uM, Number of replicates 2.0, Standard deviation 0.8881344076239932 %) -3.41%; (Thailand/16681/1984, Concentration 99.01 uM, Number of replicates 2.0, Standard deviation 1.8098148406769592 %) -2.75%; (Thailand/16681/1984, Concentration 198.0 uM, Number of replicates 2.0, Standard deviation 0.240693571175166 %) -2.36%.

Turning to `COc1cnccc1NC(=O)c1cccn(CC(C)C)c1=O`, the inhibition (Thailand/16681/1984, Concentration 49.5 uM, Number of replicates 2.0, Standard deviation 2.765243941206539 %) turned out to be 11.3%; the inhibition (Thailand/16681/1984, Concentration 99.01 uM, Number of replicates 2.0, Standard deviation 1.9875860330110593 %) is 23.2%; the inhibition (Thailand/16681/1984, Concentration 198.0 uM, Number of replicates 2.0, Standard deviation 1.4487159840884771 %) worked out at 40.5%.

In the case of `O=Cc1ccc(N2CCC(C(=O)NCc3cccc(-n4cccn4)c3)CC2)cc1`, under setting [1], the inhibition came to 13.6%.

Take `Cc1cc(CO)c2cccc(Cc3cccc(C(=O)N4CCC(C(=O)O)CC4)c3)c2n1`: the inhibition was -0.531% (Thailand/16681/1984, Concentration 49.95 uM, Number of replicates 2.0, Standard deviation 0.11067239798039237 %) and 2.3% (Thailand/16681/1984, Concentration 99.9 uM, Number of replicates 2.0, Standard deviation 0.04599367566818035 %).

For `COc1cc(C(=O)O)nc(N2CCN(C(=O)OC(C)(C)C)CC2)n1`, the inhibition (Thailand/16681/1984, Concentration 49.5 uM, Number of replicates 2.0, Standard deviation 2.0948544829183176 %) is -0.321%; the inhibition (Thailand/16681/1984, Concentration 99.01 uM, Number of replicates 2.0, Standard deviation 2.2333572879074235 %) is 0.466%; the inhibition (Thailand/16681/1984, Concentration 198.0 uM, Number of replicates 2.0, Standard deviation 0.09248704437230586 %) was determined as 3.59%.

Consider `Cc1cc(N)c2cccc(F)c2n1`, for which the inhibition (Thailand/16681/1984, Concentration 49.95 uM, Number of replicates 2.0, Standard deviation 2.207074007413848 %) is -9.77% and the inhibition (Thailand/16681/1984, Concentration 99.9 uM, Number of replicates 2.0, Standard deviation 2.035147234269057 %) was -9.31%.
